Laboratory results reported in the supplement of paper PMC3334620.
Over roughly 33,000 sequences, “E-score (-0.5 to 0.5)” has its median near -0.035; the highest 2% begin near 0.34. Some of the results follow.

target: T1, Mot3 (UniProt P54785); experiment: PBM E-score (8-mer binding enrichment) (E-score (-0.5 to 0.5)); higher = stronger / more preferred TF binding; most listed sequences are background and not binding sites; conditions: protein concentration: 200 nM; construct: GST-full length
T1 sequence: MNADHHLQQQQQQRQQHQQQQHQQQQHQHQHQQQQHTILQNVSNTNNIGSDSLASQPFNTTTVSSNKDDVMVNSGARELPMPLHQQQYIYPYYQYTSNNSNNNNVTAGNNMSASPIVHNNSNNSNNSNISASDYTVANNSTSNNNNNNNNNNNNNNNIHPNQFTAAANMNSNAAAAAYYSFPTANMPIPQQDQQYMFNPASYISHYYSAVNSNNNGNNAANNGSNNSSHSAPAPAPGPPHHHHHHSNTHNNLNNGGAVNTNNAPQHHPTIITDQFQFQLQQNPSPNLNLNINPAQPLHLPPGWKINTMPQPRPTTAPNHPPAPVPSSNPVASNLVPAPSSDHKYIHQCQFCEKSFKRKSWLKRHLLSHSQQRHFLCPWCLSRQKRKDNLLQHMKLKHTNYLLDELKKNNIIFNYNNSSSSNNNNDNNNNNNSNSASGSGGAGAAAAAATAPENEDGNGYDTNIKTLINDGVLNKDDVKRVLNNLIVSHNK
In short: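 Full-length yeast transcription factors or their DNA-binding domains, GST-tagged and expressed with PURExpress, were applied at about 100-200 nM to universal all-10-mer Agilent arrays. These arrays had been made double-stranded by primer extension on fresh or once-stripped slides. Detection used fluorescent anti-GST, normalisation used masliner, and E-scores for ungapped eight-base words pooled with reverse complements came from the Universal PBM Analysis Suite.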

Sequence	PBM E-score
GCCCATGA	-0.215
ACAGAGCG	-0.052
ATTGTGCG	-0.0567
ACTTAAGT	0.133
ACTGTCTC	-0.138
TCTGGACA	0.0548
CATGAGTA	0.00289
AGGATTCG	-0.194
AGCTTCGA	-0.0819
CCCGTCTA	-0.0225
ACAGACCG	0.0365
ACACATCA	0.156
CGATTAAC	0.039
CATTACCG	-0.0399
GAGGGGAC	-0.265
ACGTTGGC	0.0862
CGTATTGC	-0.0223
GGCGACCC	-0.198
GACCATAC	-0.304
CGGGAATA	0.0659
AGCAGAAC	0.131
CTTGGACC	-0.217
GGGGTTAC	-0.121
CTAGCACC	-0.0791
ACCTTCCC	-0.109

Sequence	PBM E-score
AGTTAAGA	0.0706
CGCTGACC	-0.12
AAGTTCAG	0.0796
AAACGCAG	0.14
AGCACTTG	-0.232
GACTGGTA	-0.00685
ACAATCCC	-0.0456
AAGTTGGT	0.0859
CTACTATA	-0.0503
ACAAGGAA	0.263
GCGCGCAA	-0.00842
CAAGTGTA	0.0318
ACTAGAGA	-0.156
CCGGTCTC	-0.24
AGCATGCG	0.0838
CGGGCGAC	-0.233
AGTCGTGA	-0.144
CTATGTGC	0.0921
GGGGGTTA	-0.284
CGCCGTCC	-0.0658
CCGGGATA	-0.13
GTACCGGA	0.104
AGTACTCA	-0.0481
ACTTCGCT	-0.0775
CATAGTTA	0.0396

Sequence	PBM E-score
ACACGCTG	0.256
CGAAACCC	-0.0567
ATAAGCTC	-0.207
AATCTATG	-0.00189
CCAGCTGC	-0.229
GATTTGAC	0.0417
CTGTCGGC	-0.252
AGCGTGGC	-0.152
GAGGACAA	-0.138
TACAACGA	0.164
CAATTTGA	0.0368
CGGAGGTC	-0.212
CCCCGCGA	-0.285
CCCTGACA	-0.109
ATAGCCCA	-0.044
ACTTGCCC	0.0267
AATATACT	0.0246
CCTTACAA	0.211
AGTAGTAG	-0.047
CAAACTAA	0.182
AAGGATTC	-0.0475
GGGACCAA	-0.185
GCTCAGCC	-0.0736
TATGGTGA	-0.158
CGATCCCG	-0.113

Sequence	PBM E-score
GAGGGGCC	-0.141
CTCCGCCA	-0.164
ACACTCTC	0.0843
AGCGAAAC	0.0281
GCATCTCC	-0.211
GGTAGAAA	-0.12
CGCCAACC	-0.161
AGATATAT	0.0802
CCGCCACA	-0.111
CTTTTTCC	0.0963
AACAACCT	0.148
AACACGTC	0.316
AGGGTATC	-0.212
CTCTAAAA	0.00053
CAAGTTAG	-0.0126
AGTACGTC	-0.145
AATACTTG	0.136
CACGCAGC	0.0415
ATAGATCG	-0.174
AGGTCAGC	-0.116
CGCCTAAA	0.18
TATATCAA	0.0715
CCCATGCG	-0.161
AAGATTTA	0.154
GCAGCTAC	-0.192

Sequence	PBM E-score
CCCAAACA	0.158
CGCGATTA	-0.0367
AATATCGC	-0.204
ATTGATCA	-0.0342
AGTGACCC	-0.338
GATTTCGC	0.167
CCACGCGC	-0.243
GCGTGTAC	0.337
CCGTTGTA	0.125
GAGTTTCA	0.0252
ACCTGAAC	0.0861
GCTGATCC	-0.291
AGTCCATG	-0.091
CGGTACAA	-0.0471
AGAATAAC	0.122
AAAATATC	0.0581
CGTTCTAA	0.0677
AAGATGGG	-0.22
GGCTCCCA	-0.141
ATGGAGGG	-0.103
ATTGCCGC	-0.054
CAACCACC	-0.163
TCACCCAA	-0.0304
GCCGTCGA	-0.277
AGGCCTTG	-0.141

Sequence	PBM E-score
AAACAACG	0.0566
GTGGATAA	-0.017
GAGGTCGA	-0.138
AGAAGCCT	0.0499
AGGCTGGC	-0.2
CGGCCCGC	-0.231
CGGTAGAG	-0.25
CGTTAAGA	0.163
CTCACAAC	0.0388
ATCCTCGA	-0.0919
TAATCGGA	0.0761
TGTGGTAA	0.243
AGTCACAT	0.107
ATGGTCAC	-0.265
AACCGGAC	-0.0484
CGCGAGAG	-0.162
ACGGAAAA	0.0396
ATAGAGGA	-0.134
ATGTAGCG	0.0644
AGGCAGTG	0.0624
ACCTCTCG	-0.28
GAGATAAA	0.0312
ACCTCAGA	-0.264
AATGGATC	-0.198
ACCGGCCA	-0.23

Sequence	PBM E-score
GAGATCCC	-0.261
AGGCCGCC	-0.229
TGCTTCAA	0.0489
ACATTCCA	0.103
CCACAGAG	-0.111
CCAAAACA	0.228
TCTATGAA	-0.0472
ATCCCAGA	-0.189
GGCTGCAA	-0.2
ACCTGCCA	-0.0155
TCATGACA	0.159
GAACGACC	-0.223
CCTGAAGA	-0.0495
ATTAATCA	0.147
AGCAGGGA	-0.167
AAAACCGA	-0.14
AATGTCTG	-0.0738
AATCGAGG	-0.141
CGCGATGA	-0.0507
CTCCACAG	-0.0711
TCCCGTCA	0.017
TAAAACGA	0.0299
CAATGTAA	0.34
AATAGAGT	-0.11
CAAGTGAG	-0.0953

Sequence	PBM E-score
ACAACCAG	0.0744
ATGTACCC	0.136
ATGGCAAA	-0.0305
AACATGAG	0.277
CTACACGA	0.377
AAACATCC	0.0522
AGGCACAT	0.49
CACACACA	0.249
CGCATGAA	-0.123
AGAAGAAC	0.0298
AATGTATC	0.181
CCCATCCC	-0.211
CAGCAGAA	-0.17
GCGTCGAA	-0.105
CCTGCGAA	0.174
CTAACTAG	0.0273
ACGTAAGT	0.199
AAGCCTTG	0.0872
GACTATGC	-0.0237
GCCTGGCC	-0.0455
ATACGATA	0.149
CCGGAGCC	-0.0488
ACCTTGAA	0.32
CCTATCCA	0.0238
ATTTGTCG	0.102

Sequence	PBM E-score
ACTATGAC	0.0502
AGGGATGC	-0.0438
ACGAACTG	-0.0561
AAATTACG	0.249
CAAGAGGG	-0.154
CGGGAGAA	-0.0878
AGGAGTTA	0.0744
TACGGGAA	-0.171
AACGTATG	0.0662
ACCACCCG	-0.147
TACACGAA	0.359
ATCCGTTG	-0.138
GACCACCC	-0.238
TCACATCA	0.0604
CCTCATGA	-0.15
ACCTAGTC	-0.0377
AGGGCTAT	-0.114
ATGGATGA	-0.00724
ACACCGAG	0.0562
CCTGGAAG	-0.156
CTGCCGAA	0.0799
AATGGAAG	-0.0818
ACTGGCGA	-0.159
ACGACATC	0.0166
CACTACCC	-0.236

Sequence	PBM E-score
CCCGGAAA	-0.138
ACTAGCGC	-0.242
AAAGAGAG	0.136
CAGGATCG	-0.0672
CAATTTCG	0.0226
ACTAATCA	-0.0635
ATTATCAA	0.185
CCGCAACG	0.11
AACTGATC	0.0315
CCATCCAC	-0.262
TCATATCA	0.0586
GTTGGATA	-0.111
ATAGGGTG	-0.196
CAGCCCGG	-0.239
GCGCGTAC	0.117
CATAAGGA	0.112
AGTCATCC	-0.233
ATCGCTCC	-0.323
TCAAGAGA	-0.15
CTCCGACA	-0.0307
ACTCTTGG	-0.0672
CCCATCGG	-0.154
AGGCTCTA	0.00663
ATTAGCCA	-0.147
ACATGATA	0.35

Sequence	PBM E-score
ACCTCGAA	-0.11
ACAGGAAA	0.453
CCGGGGAC	-0.307
GTCTATCA	0.0667
GTACCCCA	-0.113
CTACGTCC	-0.0349
ACAGGGCT	-0.0756
CCCCTCAA	-0.141
GGGCTTAC	-0.0847
AAGGTGTG	-0.0849
ATTTAAGA	0.0264
ACGTAGCC	-0.0475
ACATTACC	0.09
AATCCAAA	-0.122
GCCACCTA	-0.00864
CCCGTGGC	-0.33
AATTCACG	0.0872
CATGGGCA	0.0949
GTGCAGCA	-0.227
ACAGAATA	0.218
GAATACAC	0.363
GCTGTTCA	-0.053
AGGTTACA	0.267
TAGGACAA	-0.1
GCAAGTGA	0.0582

Sequence	PBM E-score
CGCACTAG	-0.042
CTATCCCC	-0.301
AATTGACC	0.0411
CAGTATTA	0.012
ACGAGAAT	-0.0237
AAACTGCA	-0.0533
CAGGACGA	-0.0466
AGGTTCCC	0.142
CGCTCTAG	-0.195
AACTGGGC	-0.183
AGGGCCGG	-0.406
AACTTTTC	0.0979
AAGTAGGG	-0.08
CAACCTAC	0.0449
GGGACGCA	-0.283
AACATCCC	0.0421
AAGCATCT	-0.105
CGAGCGAC	-0.144
AGTAACCA	-0.0417
AACCACTC	-0.0639
ACAATTGT	-0.039
ACCTATGA	-0.142
CCCTATCA	-0.0323
GTCTACAC	0.275
CATCCCTA	-0.092

Sequence	PBM E-score
CCTACTGC	0.0433
ACCGGAAG	-0.0465
AGAGCTAT	0.00577
GTCAGTAA	0.0519
AATATCCG	0.157
AACTAACA	0.284
AAATATTC	-0.0103
GGGTAACC	-0.144
CGAGTAAA	0.167
AAATAGAA	-0.158
GTCTGGGA	-0.0661
CCCTTGGC	-0.368
AGCGGTGC	-0.0648
GATATTAC	0.284
CGCGTTTC	0.0154
AGGTGTAG	0.0602
CATGCAGA	0.125
AATCGTAT	0.153
AGCGGCAC	-0.277
CTAGGCTA	-0.18
GGCGTTGA	-0.0951
CAACACAG	0.229
GTTACTGA	0.0507
ACCTTGCC	0.322
ACGCCAAC	0.00615

Sequence	PBM E-score
GGCCGAGA	-0.209
TGCTGGAA	0.0344
AACGCGTA	0.289
AGAACACG	0.237
GCGCTAAA	-0.018
GTTCGTTA	0.0675
AAGTCGGT	-0.266
GGCACTAC	0.219
CGATTTAG	0.0701
ACTATTCC	-0.106
ATGTGCGG	-0.0249
GGTACTGA	-0.191
GAGTCGCC	-0.319
CGGTTGAG	-0.0756
GAGTACAA	0.106
CCCGAGCA	-0.253
CGGACAAC	-0.0115
ATAGTGAA	0.0719
GACCCGGA	-0.303
